# The list shows a part of the results.
# B1: MAA (Maackia amurensis), P0DKL3 (protein)
# chain: MATSNSKPTQVLLATFLTFFFLLLNNVNSSDELSFTINNFVPNEADLLFQGEASVSSTGVLQLTRVENGQPQKYSVGRALYAAPVRIWDNTTGSVASFSTSFTFVVKAPNPDITSDGLAFYLAPPDSQIPSGSVSKYLGLFNNSNSDSSNQIVAVELDTYFAHSYDPWDPNYRHIGIDVNGIESIKTVQWDWINGGVAFATITYLAPNKTLIASLVYPSNQTTFSVAASVDLKEILPEWVRVGFSAATGYPTEVETHDVLSWSFTSTLEANCDAATENNVHIARYTA
# Tests used:
# Assay in all cases: glycan array binding signal (z-score within array); higher = stronger binding
# Conditions in all cases: glycan notation: IUPAC condensed, linker removed
# [1] = molecular target: GlcNAc(b1-3)Fuc
# Outline: (§1)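 The Consortium for Functional Glycomics database supplied 3228 glycan arrays, of which those lacking an available protein sequence were dropped. The binding signal, a within-array Z-score, was averaged across arrays of the same protein sequence and across linkers. Negative scores can be read as non-binding.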
# [2] = molecular target: GlcNAc(b1-3)Gal
# Outline: as §1
# [3] = molecular target: GlcNAc(b1-3)Gal(b1-3)GalNAc
# Outline: as §1
# [4] = molecular target: GlcNAc(b1-3)Gal(b1-4)Glc
# Outline: as §1
# [5] = molecular target: GlcNAc(b1-3)Gal(b1-4)GlcNAc
# Outline: as §1
# [6] = molecular target: GlcNAc(b1-3)Gal(b1-4)GlcNAc(b1-2)Man(a1-3)[GlcNAc(b1-3)Gal(b1-4)GlcNAc(b1-2)Man(a1-6)]Man(b1-4)GlcNAc(b1-4)GlcNAc
# Outline: as §1
# [7] = molecular target: GlcNAc(b1-3)Gal(b1-4)GlcNAc(b1-2)Man(a1-3)[GlcNAc(b1-3)Gal(b1-4)GlcNAc(b1-2)Man(a1-6)]Man(b1-4)GlcNAc(b1-4)[Fuc(a1-6)]GlcNAc
# Outline: as §1
# [8] = molecular target: GlcNAc(b1-3)Gal(b1-4)GlcNAc(b1-2)[GlcNAc(b1-3)Gal(b1-4)GlcNAc(b1-6)]Man(a1-6)[GlcNAc(b1-3)Gal(b1-4)GlcNAc(b1-2)Man(a1-3)]Man(b1-4)GlcNAc(b1-4)GlcNAc
# Outline: as §1
# [9] = molecular target: GlcNAc(b1-3)Gal(b1-4)GlcNAc(b1-3)Gal(b1-4)GlcNAc
# Outline: as §1
# [10] = molecular target: GlcNAc(b1-3)Gal(b1-4)GlcNAc(b1-3)Gal(b1-4)GlcNAc(b1-2)Man(a1-3)[GlcNAc(b1-3)Gal(b1-4)GlcNAc(b1-3)Gal(b1-4)GlcNAc(b1-2)Man(a1-6)]Man(b1-4)GlcNAc(b1-4)GlcNAc
# Outline: as §1
# [11] = molecular target: GlcNAc(b1-3)Gal(b1-4)GlcNAc(b1-3)Gal(b1-4)GlcNAc(b1-2)Man(a1-3)[GlcNAc(b1-3)Gal(b1-4)GlcNAc(b1-3)Gal(b1-4)GlcNAc(b1-2)Man(a1-6)]Man(b1-4)GlcNAc(b1-4)[Fuc(a1-6)]GlcNAc
# Outline: as §1
# [12] = molecular target: GlcNAc(b1-3)Gal(b1-4)GlcNAc(b1-3)Gal(b1-4)GlcNAc(b1-2)[GlcNAc(b1-3)Gal(b1-4)GlcNAc(b1-3)Gal(b1-4)GlcNAc(b1-6)]Man(a1-6)[GlcNAc(b1-3)Gal(b1-4)GlcNAc(b1-3)Gal(b1-4)GlcNAc(b1-2)Man(a1-3)]Man(b1-4)GlcNAc(b1-4)[Fuc(a1-6)]GlcNAc
# Outline: as §1
# [13] = molecular target: GlcNAc(b1-3)Gal(b1-4)GlcNAc(b1-3)Gal(b1-4)GlcNAc(b1-3)Gal(b1-4)GlcNAc(b1-2)Man(a1-3)[GlcNAc(b1-3)Gal(b1-4)GlcNAc(b1-3)Gal(b1-4)GlcNAc(b1-3)Gal(b1-4)GlcNAc(b1-2)Man(a1-6)]Man(b1-4)GlcNAc(b1-4)GlcNAc
# Outline: as §1
# [14] = molecular target: GlcNAc(b1-3)Gal(b1-4)GlcNAc(b1-3)Gal(b1-4)GlcNAc(b1-3)Gal(b1-4)GlcNAc(b1-2)Man(a1-3)[GlcNAc(b1-3)Gal(b1-4)GlcNAc(b1-3)Gal(b1-4)GlcNAc(b1-3)Gal(b1-4)GlcNAc(b1-2)Man(a1-6)]Man(b1-4)GlcNAc(b1-4)[Fuc(a1-6)]GlcNAc
# Outline: as §1
# [15] = molecular target: GlcNAc(b1-3)Gal(b1-4)GlcNAc(b1-3)Gal(b1-4)GlcNAc(b1-3)Gal(b1-4)GlcNAc(b1-2)[GlcNAc(b1-3)Gal(b1-4)GlcNAc(b1-3)Gal(b1-4)GlcNAc(b1-3)Gal(b1-4)GlcNAc(b1-6)]Man(a1-6)[GlcNAc(b1-3)Gal(b1-4)GlcNAc(b1-3)Gal(b1-4)GlcNAc(b1-3)Gal(b1-4)GlcNAc(b1-2)Man(a1-3)]Man(b1-4)GlcNAc(b1-4)[Fuc(a1-6)]GlcNAc
# Outline: as §1
# [16] = molecular target: GlcNAc(b1-3)Gal(b1-4)GlcNAc(b1-3)Gal(b1-4)GlcNAc(b1-3)Gal(b1-4)GlcNAc(b1-3)Gal(b1-4)GlcNAc(b1-2)Man(a1-3)[GlcNAc(b1-3)Gal(b1-4)GlcNAc(b1-3)Gal(b1-4)GlcNAc(b1-3)Gal(b1-4)GlcNAc(b1-3)Gal(b1-4)GlcNAc(b1-2)Man(a1-6)]Man(b1-4)GlcNAc(b1-4)GlcNAc
# Outline: as §1
# [17] = molecular target: GlcNAc(b1-3)Gal(b1-4)GlcNAc(b1-3)Gal(b1-4)GlcNAc(b1-3)Gal(b1-4)GlcNAc(b1-3)Gal(b1-4)GlcNAc(b1-2)Man(a1-3)[GlcNAc(b1-3)Gal(b1-4)GlcNAc(b1-3)Gal(b1-4)GlcNAc(b1-3)Gal(b1-4)GlcNAc(b1-3)Gal(b1-4)GlcNAc(b1-2)Man(a1-6)]Man(b1-4)GlcNAc(b1-4)[Fuc(a1-6)]GlcNAc
# Outline: as §1
# [18] = molecular target: GlcNAc(b1-3)Gal(b1-4)GlcNAc(b1-3)Gal(b1-4)GlcNAc(b1-3)Gal(b1-4)GlcNAc(b1-3)Gal(b1-4)GlcNAc(b1-2)[GlcNAc(b1-3)Gal(b1-4)GlcNAc(b1-3)Gal(b1-4)GlcNAc(b1-3)Gal(b1-4)GlcNAc(b1-3)Gal(b1-4)GlcNAc(b1-6)]Man(a1-6)[GlcNAc(b1-3)Gal(b1-4)GlcNAc(b1-3)Gal(b1-4)GlcNAc(b1-3)Gal(b1-4)GlcNAc(b1-3)Gal(b1-4)GlcNAc(b1-2)Man(a1-3)]Man(b1-4)GlcNAc(b1-4)[Fuc(a1-6)]GlcNAc
# Outline: as §1
# [19] = molecular target: GlcNAc(b1-3)Gal(b1-4)GlcNAc(b1-3)Gal(b1-4)GlcNAc(b1-3)GalNAc
# Outline: as §1
# [20] = molecular target: GlcNAc(b1-3)Gal(b1-4)GlcNAc(b1-3)GalNAc
# Outline: as §1
# [21] = molecular target: GlcNAc(b1-3)Gal(b1-4)GlcNAc(b1-3)[GlcNAc(b1-3)Gal(b1-4)GlcNAc(b1-3)]GalNAc
# Outline: as §1
# [22] = molecular target: GlcNAc(b1-3)Gal(b1-4)GlcNAc(b1-6)[Gal(b1-3)]GalNAc
# Outline: as §1
# [23] = molecular target: GlcNAc(b1-3)Gal(b1-4)GlcNAc(b1-6)[GlcNAc(b1-3)Gal(b1-3)]GalNAc
# Outline: as §1
binder,measurement,setting,value
B1,glycan array binding signal (z-score),[1],-0.227
same,glycan array binding signal (z-score),[2],-0.192
same,glycan array binding signal (z-score),[3],-0.22
same,glycan array binding signal (z-score),[4],-0.196
same,glycan array binding signal (z-score),[5],-0.201
same,glycan array binding signal (z-score),[6],-0.238
same,glycan array binding signal (z-score),[7],-0.164
same,glycan array binding signal (z-score),[8],0.062
same,glycan array binding signal (z-score),[9],-0.213
same,glycan array binding signal (z-score),[10],0.125
same,glycan array binding signal (z-score),[11],-0.178
same,glycan array binding signal (z-score),[12],0.435
same,glycan array binding signal (z-score),[13],-0.047
same,glycan array binding signal (z-score),[14],-0.098
same,glycan array binding signal (z-score),[15],0.282
same,glycan array binding signal (z-score),[16],0.238
same,glycan array binding signal (z-score),[17],-0.256
same,glycan array binding signal (z-score),[18],-0.091
same,glycan array binding signal (z-score),[19],-0.057
same,glycan array binding signal (z-score),[20],-0.227
same,glycan array binding signal (z-score),[21],-0.118
same,glycan array binding signal (z-score),[22],-0.247
same,glycan array binding signal (z-score),[23],-0.304

# Source: the supplement of paper PMC8728848
